# The whole screen tested about 310,000 compounds, of which about 2,200 (0.71%) showed an effect of 50% or more. Effects have a minus sign here. The list shows a part of the results.
# Target: human ether-à-go-go-related gene (hERG) potassium channel (human, UniProt Q12809)
# Assay: primary screen, population patch clamp on CHO cells stably expressing hERG
# human ether-à-go-go-related gene (hERG) potassium channel, sequence (Q12809 whole entry, looked up): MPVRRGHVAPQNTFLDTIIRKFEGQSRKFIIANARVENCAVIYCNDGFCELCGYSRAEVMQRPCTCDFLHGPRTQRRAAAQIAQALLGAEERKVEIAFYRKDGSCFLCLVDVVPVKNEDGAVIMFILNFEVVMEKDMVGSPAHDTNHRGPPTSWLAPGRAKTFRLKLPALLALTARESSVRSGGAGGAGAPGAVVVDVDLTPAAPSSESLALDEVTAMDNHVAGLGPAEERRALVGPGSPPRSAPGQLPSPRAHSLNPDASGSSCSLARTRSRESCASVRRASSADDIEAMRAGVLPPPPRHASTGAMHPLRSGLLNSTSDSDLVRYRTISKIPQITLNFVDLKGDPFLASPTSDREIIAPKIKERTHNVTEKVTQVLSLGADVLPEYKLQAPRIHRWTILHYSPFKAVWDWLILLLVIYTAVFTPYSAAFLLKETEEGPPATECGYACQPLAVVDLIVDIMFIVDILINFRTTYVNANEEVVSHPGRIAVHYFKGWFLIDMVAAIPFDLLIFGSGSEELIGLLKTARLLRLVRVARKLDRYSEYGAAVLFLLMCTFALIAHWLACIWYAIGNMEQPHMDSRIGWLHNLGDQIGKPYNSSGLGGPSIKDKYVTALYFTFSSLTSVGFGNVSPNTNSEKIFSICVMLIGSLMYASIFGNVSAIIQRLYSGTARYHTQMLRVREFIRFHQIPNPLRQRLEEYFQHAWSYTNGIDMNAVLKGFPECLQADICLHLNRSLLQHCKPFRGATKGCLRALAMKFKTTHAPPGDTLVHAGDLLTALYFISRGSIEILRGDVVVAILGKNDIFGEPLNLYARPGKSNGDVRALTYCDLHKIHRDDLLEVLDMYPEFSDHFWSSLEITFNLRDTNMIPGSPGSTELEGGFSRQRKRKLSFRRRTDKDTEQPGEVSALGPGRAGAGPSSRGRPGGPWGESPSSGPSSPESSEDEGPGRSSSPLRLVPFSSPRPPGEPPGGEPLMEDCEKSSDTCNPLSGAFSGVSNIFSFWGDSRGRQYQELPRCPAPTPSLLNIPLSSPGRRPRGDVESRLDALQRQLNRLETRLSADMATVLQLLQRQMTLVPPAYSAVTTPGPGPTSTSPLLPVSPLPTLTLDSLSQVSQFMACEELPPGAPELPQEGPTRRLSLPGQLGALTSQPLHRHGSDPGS
row,Structure (SMILES),"hERG current change (%, negative = inhibition) at 1uM"
1,CC(=O)c1ccc(NC(=O)C2CCCN2S(=O)(=O)c2ccc(F)cc2)cc1 (stereo not shown),1.16%
2,CC(=O)Nc1ccccc1C(=O)N1CCN(Cc2ccc3c(c2)OCO3)CC1,14.5%
3,Cc1cc(C)n(-c2ccc(C(=O)Nc3nnc(C4CC4)s3)cc2)n1,4.64%
4,COc1ccc(C(=O)N=C2SC3CS(=O)(=O)CC3N2Cc2ccc(OC)c(OC)c2)cc1 (stereo not shown),10.7%
5,CCN1C[C@]2(COC)CC[C@H](OC)[C@@]34C5C[C@H]6C(=O)C5[C@](O)(C[C@H]6OC)[C@@](O)(C(OC)C23)[C@@H]14 (stereo partly shown),8.6%
6,CC(CCc1ccccc1)NC(=O)CCNC(=O)Cn1ccc2ccccc2c1=O (stereo not shown),15%
7,COc1ccccc1CNC(=O)[C@H](C)NC(=O)C1CCN(C(=O)[C@@H](N)CC(C)C)CC1,-3.47%
8,COc1ccc(-n2c(=S)[nH]c3cc(C(=O)NCCCN4CCOCC4)ccc3c2=O)cc1OC,23.7%
9,COCCC(=O)N1CCC(Oc2ccc(C(=O)NCc3csc(C)n3)cc2)CC1,10.2%
10,CCO.Nc1nc(N)c2cc(Sc3ccc4ccccc4c3)ccc2n1,2.73%
11,Cc1ccc(Cn2c(C(C)Nc3nc(-c4ccc(F)cc4)cs3)nc3cc(Cl)c(Cl)cc32)cc1 (stereo not shown),9.52%
12,CCc1ccc(N(C2C=CS(=O)(=O)C2)S(=O)(=O)c2ccc(C)cc2)cc1 (stereo not shown),-13.3%
13,COc1cc(C2NC(=S)NC(c3ccccc3)=C2C(C)=O)ccc1O (stereo not shown),11.4%
14,Cc1ccc2c(c1)N(C(=O)CCC(=O)NCCCN1CCN(C)CC1)CCO2,7.21%
15,COC(=O)c1cc2c(C)nn(C)c2s1,9.68%
16,FC(F)(F)c1cccc(NC(=S)N2CCN(c3ccccn3)CC2)c1,12.8%
17,COc1ccc(NC(=S)N2CCC(C(O)(c3ccccc3)c3ccccc3)CC2)cc1,5.8%
18,CCN(CC)C(=O)CSc1nnc2nnc3cc(Cl)ccc3n12,2.62%
19,Fc1ccc(CSc2nnc(CN3CCOCC3)n2-c2ccccc2)c(Cl)c1,-0.2%
20,COc1ccccc1C(C)NC(=O)C1CCN(S(=O)(=O)c2cccs2)CC1 (stereo not shown),9.63%
21,O=C(O)COc1ccc2c(c1)O/C(=C\c1ccco1)C2=O,15.7%
22,CC(=O)C1=C(C)Nc2cc(C(F)(F)F)ccc2S1,7.9%

row,Structure (SMILES),"hERG current change (%, negative = inhibition) at 1uM"
1,CCCCn1c(SCc2nc(N)nc(Nc3ccccc3C)n2)nc2ccccc2c1=O,2.25%
2,COc1ccc(C(c2sc3nc(C)nn3c2O)N2CCc3ccccc3C2)cc1 (stereo not shown),12.6%
3,O=C(NCCc1nc2ccccc2[nH]1)c1ccco1,11.5%
4,CCC(=O)Nc1ccc(C(=O)Nc2ccc3c(c2)OCO3)cc1,19.6%
5,O=c1oc2ccccc2c2c1C(O)CO2 (stereo not shown),17.5%
6,CCn1cc(C2C(C(=O)Nc3ccc(Br)cn3)=C(C)NC3=C2C(=O)CCC3)c(C)n1 (stereo not shown),11.2%
7,CCOc1ccc(N2C(=O)/C(=C/c3ccccn3)SC2=S)cc1,1.84%
8,Cc1ccc2c(Cl)c(C(=O)Nc3cccnc3)sc2c1,16.1%
9,Cc1ccc(CS(=O)Cc2ccc(C(=O)N3CCN(C4CCCCC4)CC3)o2)cc1 (stereo not shown),9.81%
10,Cc1ccc(C)c(C(=O)c2c(C)nc3sccn23)c1,-9.68%
11,Cc1nc(C(=O)NNC(=O)c2c(-c3c(Cl)cccc3Cl)noc2C)cs1,7.1%
12,COc1cccc(C=O)c1OCCCOc1cccc2cccnc12,11.9%
13,Cc1cc(C)n2nc(SCC(=O)N(Cc3ccccc3)C3CCS(=O)(=O)C3)nc2n1 (stereo not shown),12.7%
14,CCOc1ccccc1N1CCN(C(=O)c2cn(CC3CCCCC3)nn2)CC1,0.776%
15,C#CCN1C(=O)C(O)(CC(=O)c2ccc(OC)c(OC)c2)c2ccccc21 (stereo not shown),0.756%
16,O=c1c2ccccc2nc(SCc2ccccc2F)n1C1CCCC1,7%
17,CSc1nnc(-c2ccc(C(F)(F)F)nc2C)o1,9.09%
18,CCOc1ccccc1NC(=O)Cc1ccccc1OC,4.73%
19,CCOc1cccc(C2/C(=C(/O)c3ccc4c(c3)CC(C)O4)C(=O)C(=O)N2CCN2CCOCC2)c1 (stereo not shown),11.6%
20,CCOc1ccc(OCC)c(NC(=O)C2COc3ccccc3O2)c1 (stereo not shown),11.9%
21,Cc1ccc(Cn2c(=O)c3ccccc3n3c(SCC(=O)N4CCCCC4C)nnc23)cc1 (stereo not shown),-16.1%
22,Cc1ccc(CNC(=O)c2ccc(N3CCC4(CC3)CC(c3ccccc3)=NO4)c(NC(=O)c3ccco3)c2)cc1,11%

row,Structure (SMILES),"hERG current change (%, negative = inhibition) at 1uM"
1,O=C1N(c2ccccc2)C2CS(=O)(=O)CC2N1c1ccc(Cl)c(Cl)c1 (stereo not shown),9.4%
2,COC(=O)COc1cc2ccccc2cc1C(=O)Nc1ccccc1,6.49%
3,COc1ccccc1/C=C1\Cc2ccccc2C1=O,9%
4,Nc1nonc1/C(=N/O)N1CCN(CCO)CC1,-4.07%
5,C=CCc1ccc(OCC(O)CO)c(OC)c1 (stereo not shown),14.3%
6,COc1ccc(NC(=S)NCc2ccc(F)cc2)cc1,0.619%
7,CCN(CC)C(=O)C(=O)Nc1cc(C(F)(F)F)ccc1Cl,6.47%
8,Oc1cc2c(cc1CN1CCN(c3cccc(C(F)(F)F)c3)CC1)CCC2,4.86%
9,COC(=O)c1ccccc1NC(=O)C(C)n1nc(C)c2c(C)n(-c3ccccc3)nc2c1=O (stereo not shown),18%
10,CCOc1ccc(S(=O)(=O)Nc2ccccc2C(=O)N2CCCC2)cc1,6.12%
11,CC(NC(=O)c1cc(COc2c(F)cccc2F)on1)c1cnn(-c2ccccc2)c1 (stereo not shown),4.97%
12,Cc1ccc(CSCc2ccc(C(=O)NC3CC3)o2)cc1,5.51%
13,Cc1ccc(OCC(=O)N2CCN(CC3CC4C=CC3C4)CC2)cc1.O=C(O)C(=O)O (stereo not shown),3.15%
14,O=C(CCc1nnc(CCCc2ccccc2)o1)N1CCCCCC1,30.5%
15,C[C@@H](NC(=O)c1nc[nH]c1C(=O)N[C@H](C)c1ccccc1)c1ccccc1,12.1%
16,CCOC(=O)N1CCN(c2ccnc3cc(Cl)ccc23)CC1,-36.7%
17,CN(c1ccccc1)S(=O)(=O)c1cccc(C(=O)NC2CC(C)(C)NC(C)(C)C2)c1,2.96%
18,Cc1ccc(Oc2ncccc2NC(=O)CCCC(=O)O)c2c1CCC2,14.8%
19,O=C1[C@@H]2C(Cc3ccc(O)cc3)NC3(C(=O)Nc4ccc(F)cc43)[C@@H]2C(=O)N1c1ccc(F)cc1 (stereo partly shown),14.6%
20,O=C1OC(Nc2ccc3c(c2)OCO3)c2ccccc21 (stereo not shown),11.3%
21,COc1ccc(S(=O)(=O)N2CCCC(C(=O)Nc3ccc4c(c3)OCCO4)C2)cc1 (stereo not shown),13.4%
22,Cl.O=C(O)c1ccc(CNCc2cc(Cl)ccc2O)cc1,4.72%

row,Structure (SMILES),"hERG current change (%, negative = inhibition) at 1uM"
1,Cc1ccnc(Nc2nc(-c3ccc(O)c(O)c3)cs2)c1,11.7%
2,CC(C(=O)Nc1ccc(F)c(F)c1F)N(C)CCOc1ccccc1 (stereo not shown),12.2%
3,O=C(O)c1ccc(-c2ncc[nH]2)cc1,11.8%
4,O=C1NC2(CCSC2)C(=O)N1CC(=O)N(Cc1ccccc1)C1CCS(=O)(=O)C1 (stereo not shown),11.8%
5,Cc1nn(-c2ccccn2)c2c1-c1nc(N3CCOCC3)ncc1CC2,8.1%
6,COc1ccccc1C(=O)Nc1nnc(SCC(=O)NC2CCCC2)s1,17.5%
7,COc1ccc(Cn2c(SCc3cc(C)ccc3C)nc3cc(OC)c(OC)cc3c2=N)cc1,5.43%
8,CCOC(=O)C1CCN(C(=O)c2cc3cc4ccc(OC)cc4nc3o2)CC1,6.86%
9,O=C(NCCS(=O)(=O)N1CCCCCC1)c1ccc(F)cc1,4.62%
10,O=C(CNS(=O)(=O)c1ccccc1)NCC(=O)OCc1ccc(Cl)cc1,10.3%
11,O=C(NC1CCCC1)C1CCCN1S(=O)(=O)c1cccc2cccnc12 (stereo not shown),6.11%
12,Nc1cc(C(=O)O)ccc1N1CCCCC1,1.1%
13,CC1(C)Cc2c(sc(NC(=O)Cc3ccccc3)c2C#N)CO1,8.87%
14,CCCCn1c(SCC(=O)N2CCCCC2)nc2cc(S(N)(=O)=O)ccc21,-2.98%
15,C/C(=N\NC(=O)Cc1ccc(F)cc1)c1ccc(F)cc1,-4.95%
16,COc1cccc(NC(=S)N(CCC(C)C)C2CCN(C(C)=O)CC2)c1,6.52%
17,COC(=O)C1=C(C(C)=O)C(c2ccc(C)cc2)n2nnnc2N1 (stereo not shown),11.5%
18,O=C(CNc1ccc(C(F)(F)F)cc1)Nc1cccc(S(=O)(=O)N2CCCC2)c1,3.25%
19,CC(=O)c1cccc(OCc2cc(C(=O)NCc3nc(C)c(C)s3)no2)c1,11.2%
20,COc1ccc(S(=O)(=O)N2CCN(C(=O)c3cccc(Cl)c3)CC2)cc1,3.61%
21,CCOC(=O)C(=CNc1cccc(C)n1)C(=O)OCC,3.1%
22,O=C(Nc1ccc(C(=O)N2CCCCC2)cc1)c1ccccc1Br,9.57%

# Source: paper PMC4336329 (PLoS ONE, 2015)
